# Measurements as given in PubChem BioAssay AID1745853 (National Center for Advancing Translational Sciences (NCATS), 2022).
# The other results are listed elsewhere or left out. These are further read-outs of the screen, such as a control signal, another cell line or another target. No call is given for them.
# Legend:
# Experiment in all cases: Primary Screen for Target Class Profiling of Small Molecule Inhibitors of Methyltransferases
# [1] = molecular target: Glycine N-methyltransferase (Homo sapiens) (UniProt Q14749); details: purified enzyme, MTase-Glo SAH luminescence; measured here: GNMT inhibition; at 40 µM; stronger effect = lower value
# Outline: (§1)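 Each enzyme was assayed with SAM and its substrate. SAH formation detected by MTase-Glo luminescence; single-point 40 uM screen[…].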
# [2] = molecular target: Guanidinoacetate N-methyltransferase (Homo sapiens) (UniProt Q14353); details: purified enzyme, MTase-Glo SAH luminescence; measured here: GAMT inhibition; at 40 µM; stronger effect = lower value
# Outline: as §1
# [3] = molecular target: Histamine N-methyltransferase (Homo sapiens) (UniProt P50135); details: purified enzyme, MTase-Glo SAH luminescence; measured here: HNMT inhibition; at 40 µM; stronger effect = lower value
# Outline: as §1
# [4] = molecular target: Nicotinamide N-methyltransferase (Homo sapiens) (UniProt P40261); details: purified enzyme, MTase-Glo SAH luminescence; measured here: NNMT inhibition; at 40 µM; stronger effect = lower value
# Outline: as §1
# [5] = molecular target: Phenylethanolamine N-methyltransferase (Homo sapiens) (UniProt P11086); details: purified enzyme, MTase-Glo SAH luminescence; measured here: PNMT inhibition; at 40 µM; stronger effect = lower value
# Outline: as §1
# % is set by controls: 0 for no effect and ±100 for the full control effect.
SMILES,"activity change, negative = inhibition [1]","activity change, negative = inhibition [2]","activity change, negative = inhibition [3]","activity change, negative = inhibition [4]","activity change, negative = inhibition [5]"
C=C1CC/C=C(/C(=O)O)CCC2C1CC2(C)C (configuration not stated),0%,7.26%,10%,-6.52%,5.37%
CN1C(=O)c2ccccc2-n2c(nc3ccccc3c2=O)[C@@]12O[C@H]2c1ccccc1,0%,6%,11.9%,-15.2%,4.82%
CC(C)[C@H]1CN(CCS(C)(=O)=O)C[C@@H]1NC(=O)c1ccco1,-5.86%,-1.58%,0.003%,-1.01%,2.06%
Cc1ccc(N2C(=O)c3ccc(-c4ccco4)n3CC2(C)C(=O)NCc2ccc(Cl)cc2)cc1C (configuration not stated),-3.5%,0.922%,9.39%,9.05%,-1%
CS(=O)(=O)N1CCc2c(-c3cnc(N)nc3)nc(N3CCOCC3)nc21,2.09%,4.16%,9%,-9.28%,6.39%
COc1ccc(N2C(=O)c3cc4sccc4n3CC2(C)C(=O)NC2CCCCCC2)cc1Cl (configuration not stated),-3.92%,4.18%,0.799%,2.4%,-4.43%
COc1ccc2cc3n(c2c1)CC(C)(C(=O)NC1CCCCC1)N(c1ccc2c(c1)OCO2)C3=O (configuration not stated),2.03%,0.777%,2.21%,-6.66%,-0.481%
COc1ccc(NC(=O)Cn2nc3nc(Nc4ccc(F)cc4)ccn3c2=O)cc1F,-11.4%,1.09%,-3.18%,-4.19%,-4.34%
Cc1ccc(Cn2c(=O)c3ccccc3n3c(=O)n(CC(=O)NCc4ccc(Cl)cc4)nc23)cc1,0.266%,9.15%,3.57%,0.03%,1.87%
CCCn1c(=O)c2ccc(C(=O)NC(C)C)cc2n2c(SCC(=O)c3cc(C)ccc3C)nnc12,3.51%,-0.259%,3.46%,11.7%,1.96%
Cn1c(NC[C@@H](N)Cc2ccccc2)nc(-c2ccncc2)c(-c2ccc3ccccc3c2)c1=O,-3.62%,7.64%,-13.6%,-19.1%,-1.64%
CCCn1c(=O)c2ccc(Cl)cc2n2c(SCC(=O)NC3CCCCC3)nnc12,5%,0%,9%,5.92%,3.37%
c1ccc(CCNc2nc3c(-c4ccccc4)nnn3c3ccccc23)cc1,-5.02%,1.56%,1.4%,8.87%,-1.44%
COCCN1C(=O)c2nc3ccccc3n2CC1(C)C(=O)NC1CCCCC1 (configuration not stated),9.04%,1.26%,11%,12.2%,3.93%
CCOC(=O)c1cn(C2CN(C(=O)Cc3cccc(Cl)c3)C2)nn1,-1.65%,-0.6%,-0.119%,-4.46%,-0.982%
CCc1ccccc1N1C(=O)c2cc3ccccc3n2CC1(C)C(=O)NCCC(C)C (configuration not stated),3.01%,4.9%,4.81%,6.28%,1.22%
CCC(=O)N(C1CCOCC1)C1CCN(Cc2ccc(SC)cc2)CC1,-2.41%,-1%,-0.82%,-9.16%,4.48%
COc1ccc(CN2C(=O)c3cc4ccccc4n3CC2(C)C(=O)NCc2ccccc2OC)cc1 (configuration not stated),-0.132%,3.16%,2.43%,1.94%,-1.93%
Cn1c(=O)c2ccc(C(=O)NC3CCCC3)cc2n2c(SCc3ccccc3F)nnc12,-6.4%,0.526%,0.345%,-6.69%,-3.92%
COc1cccc(NC(=O)CCc2nnc3n(Cc4ccccc4Cl)c(=O)c4ccccc4n23)c1,-5.07%,1.41%,2.75%,8.04%,-4.5%

SMILES,"activity change, negative = inhibition [1]","activity change, negative = inhibition [2]","activity change, negative = inhibition [3]","activity change, negative = inhibition [4]","activity change, negative = inhibition [5]"
COc1ccc(CNC(=O)c2cc3n(n2)CC(C)(C(=O)NCc2ccccc2)N(C)C3=O)cc1 (configuration not stated),8.96%,0%,4.6%,10.2%,1.7%
Cc1ccc(N2CCN(S(=O)(=O)N3CCCCC3)CC2)c(C)c1,-8.32%,-6.88%,0.315%,-22.4%,-2.15%
O=c1ccn(C2OC(CO)C(O)C2O)c(=O)[nH]1 (configuration not stated),0%,5.77%,11.2%,-5.1%,0.288%
COC(=O)c1ccccc1O[C@@H]1O[C@H](CO[C@@H]2OC[C@@H](O)[C@H](O)[C@H]2O)[C@@H](O)[C@H](O)[C@H]1O,0%,5.73%,9.84%,-4.17%,5.67%
Brc1cccc(-c2nnn3c2nc(N2CCCCC2)c2ccccc23)c1,1.58%,0%,7.88%,7.18%,-2.11%
COc1cc(C2OCC3(O)C(c4ccc(O[C@@H]5O[C@H](CO)[C@@H](O)[C@H](O)[C@H]5O)c(OC)c4)OCC23O)ccc1O (some centres not stated),4.79%,8.12%,11.2%,-4.05%,7.21%
CCOC(=O)c1cc2n(n1)CC(C)(C(=O)NC1CCC(C)CC1)N(c1ccccc1C)C2=O (configuration not stated),-0.792%,3.53%,-0.939%,1.47%,0.281%
Cc1ccccc1CN1C2=NCCN2C(=O)C2=C1CCN(Cc1ccccc1)C2,-2.9%,0.477%,-4.15%,-16.2%,-8.77%
CCC(C)NC(=O)c1ccc2c(=O)n(C)c3nn(CC(=O)NCc4ccc(C)cc4)c(=O)n3c2c1 (configuration not stated),7.85%,1.8%,10.8%,0.942%,6.63%
CC(C)C[C@H]1NC(=O)[C@@H]2C[C@@H](NC(=O)CS(=O)(=O)c3ccccc3)CCN2C1=O,-3.59%,-4.42%,-4.32%,-5.77%,-2.22%
COc1ccc(CCN(C)CCCC(C#N)(c2cc(OC)c(OC)c(OC)c2)C(C)C)cc1OC (configuration not stated),-1.14%,10.2%,-0.603%,-6.3%,10.8%
COC(=N)c1nc2ccc3ncnc(Nc4ccc(F)cc4Br)c3c2s1,–,16.2%,–,-20%,5.31%
Nc1nc2c(cnn2CCCc2ccc(O)cc2)c2nc(-c3ccco3)nn12,-7.62%,-8.36%,0.391%,-18.4%,-3.68%
Cc1ccc(F)cc1S(=O)(=O)N[C@@H]1CCN(Cc2ccc(OC(C)C)cc2)C1,-0.535%,-2.9%,-3.24%,-17.1%,-9.76%
COc1ccc(S(=O)(=O)N2CCC(OCCOc3ccccc3)CC2)cc1,1.86%,2.77%,15.6%,6.91%,8.42%
CCOC(=O)c1cc2n(n1)CC(C)(C(=O)NCCCOC)N(c1ccc(OC)cc1)C2=O (configuration not stated),10.3%,0.794%,9.22%,10%,9.35%
CC1(C(=O)NCc2ccccc2Cl)Cn2cnc(C(=O)NCCN3CCOCC3)c2C(=O)N1C1CC1 (configuration not stated),3.49%,0.95%,14.9%,3.89%,9.51%
CNC(=O)C(C)(C)N1CCC[C@H]1C(=O)NC1CCCCC1,-5.44%,-11.7%,-3.97%,-10.4%,-12.2%
CCn1ncc(CN2CC[C@@H]3CN(S(C)(=O)=O)[C@@H]3C2)c1C,-1.67%,-2.64%,0.54%,2.06%,-4.69%
O=C1NC(=O)C(c2c[nH]c3ccccc23)=C1c1c[nH]c2ccccc12,-46.8%,–,-57%,-62.8%,-64.3%

SMILES,"activity change, negative = inhibition [1]","activity change, negative = inhibition [2]","activity change, negative = inhibition [3]","activity change, negative = inhibition [4]","activity change, negative = inhibition [5]"
CC(C)(C)c1cc(CN2CCN(CC(O)c3ccc(Cl)cc3)CC2)cc(C(C)(C)C)c1O (configuration not stated),1.6%,-0.261%,3.4%,-16.2%,-2.86%
CCc1ccc(N2C(=O)c3cc4sc(CC)cc4n3CC2(C)C(=O)NC2CCC(C)CC2)cc1 (configuration not stated),0.587%,4.08%,0.965%,5.42%,0.029%
CCCn1c(=O)c2ccccc2n2c(SCC(=O)Nc3ccc(C)cc3C)nnc12,-4.56%,0%,-1.13%,-5.53%,2.95%
O=C1NC2(CCCN([S+](=O)([O-])c3ccsc3)C2)COc2ccccc21 (configuration not stated),-1.85%,1.64%,0.599%,-20.5%,-10.5%
CC12CCC3c4ccc(OC5OC(C(=O)O)C(O)C(O)C5O)cc4CCC3C1CCC2O (configuration not stated),2.62%,7.48%,12.5%,-6.64%,2.2%
O=C1c2cc3sccc3n2CC(C(=O)NC2CCCCCC2)(c2ccccc2)N1Cc1ccccc1 (configuration not stated),6.5%,0.221%,2.91%,7.34%,1.78%
COc1cc(O)cc(C)c1C(=O)O[C@H]1[C@@H](OC(C)=O)[C@H](n2ccc(=O)[nH]c2=O)O[C@@H]1CO,2.34%,3.8%,11.4%,-8.4%,-3.08%
COc1cc(SC)ccc1C(=O)N[C@H]1CCN2C(=O)N(c3cccc(C(F)(F)F)c3)C(=O)[C@@H]2C1,-4.18%,-2.26%,-0.829%,-13.5%,-4.78%
CC[C@H](C)C(=O)O[C@H]1CCC=C2C=C[C@H](C)[C@H](CC[C@@H]3C[C@@H](O)CC(=O)O3)[C@H]21,-2.24%,10.4%,1.96%,-9.77%,1.95%
N[C@@H]1c2cccnc2[C@H](OC(=O)N2CCC(n3c(=O)[nH]c4ncccc43)CC2)CC[C@H]1c1cccc(F)c1F,-10.9%,1.28%,6.47%,-29.6%,-4.82%
CCCCN1C(=O)c2cc(C(=O)Nc3c(C)cc(C)cc3C)nn2CC1(C)C(=O)NC1CCCC1 (configuration not stated),5.62%,0.573%,-8.45%,0.029%,4.09%
COC1CC(O[C@H]2CC[C@]3(C)C4CC[C@]5(C)C(C6=CC(=O)OC6)=CCC56OC46CC[C@@H]3C2)OC(C)C1O[C@@H]1O[C@H](CO[C@@H]2O[C@H](CO)[C@@H](O)[C@H](O)[C@H]2O)[C@@H](O)[C@H](O)[C@H]1O (some centres not stated),0%,4.52%,8.22%,-9.89%,3.68%
c1ccc2cc(-c3noc([C@@H]4Cc5nc[nH]c5CN4CC4CCCCC4)n3)ccc2c1,-9.13%,-4.96%,-5.86%,-12%,-5.07%
Cc1c(Cl)cccc1N1C(=O)c2cc3ccccc3n2CC1(C)C(=O)NC1CCCC1 (configuration not stated),0.261%,4.7%,-4.11%,2.62%,-0.201%
CC(C)Cn1c(=O)c2ccc(C(=O)NC(C)C)cc2n2c(SCC(=O)NC3CCCCC3)nnc12,1.66%,-0.12%,11.3%,-1.01%,-0.979%
COCC(=O)N[C@H]1CCN(C(=O)COC)[C@H](C(=O)N[C@@H](Cc2cccs2)C(N)=O)C1,0.518%,-0.673%,2.26%,-1.6%,4.64%
CC(NC(=O)c1cc2n(n1)CC(C)(C(=O)NC1CCCC1)N(C)C2=O)c1ccccc1 (configuration not stated),3.06%,2.49%,1.36%,1.84%,-1.2%
COc1ccc(-c2cc3n(n2)CC(C)(C(=O)NCc2ccccc2)N(c2cc(C)cc(C)c2)C3=O)cc1 (configuration not stated),4.71%,0.313%,5.68%,4.13%,0.664%
